From the supplement of paper PMC7826260 come the findings set out here.

This is one part of the list. One pool of 16,384 single-stranded DNAs met each Rep nickase domain in vitro at 3 µM enzyme and 37 °C for 1 h; the strands have 90 letters, of which the middle is given. Uncut reads are compared with the no-enzyme pool on a log2 scale; strong cutting gives strongly negative numbers. There is no active / inactive call. Because reads are shares of a total, they shift together; where an enzyme cuts many sequences, the uncut ones exceed 0.

The assay concerns T1, Rep nickase domain of wheat dwarf virus.
T1 sequence (protein, residues 1-137, tag omitted): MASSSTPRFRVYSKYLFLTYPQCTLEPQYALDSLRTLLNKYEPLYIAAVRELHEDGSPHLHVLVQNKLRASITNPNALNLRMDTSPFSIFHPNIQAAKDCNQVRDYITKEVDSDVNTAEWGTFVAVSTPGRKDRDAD
As to the kind of experiment: uncleaved DNA left, log2 of reads against the no-enzyme library (log2 ratio); higher = less cleavage (more negative = more Rep cleavage of the k-mer); sequences stand for … in CTCGTCCG…ACCGGAGA
The method, then: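 A pool of 90-nt single-stranded DNAs with seven random bases just before the constant AC of the nick site (name = the seven bases) was cut by 3 µM recombinant His6-SUMO-tagged Rep nickase domain (300 nM DNA, 50 mM HEPES pH 8.0, 50 mM NaCl, 1 mM MnCl2, 1 h, 37 °C, three replicates). Uncut DNA was amplified and sequenced.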
As for ACATCTG, the “uncleaved DNA left (log2)” value is -0.0606.
The same measure for GGGAAGA: 0.125.
Next, CACATAG: -0.111.
Turning to TCGATGG, the “uncleaved DNA left (log2)” value was determined as 0.0183.
As to GTGACCT, the “uncleaved DNA left (log2)” value turned out to be 0.0657.
Next, ATATCAC: 0.0872.
Next, CCCTCTG: -0.229.
For the sequence GTAATAA, the “uncleaved DNA left (log2)” value is -0.0166.
The same measure for CAAAAGA: -0.0657; for GGCTGCT: 0.0332.
The same measure for TGCAATG: 0.138; for GCATACC: 0.0908; for TACACCT: -0.0572.
The same measure for CGTGACA: -0.0551.
Consider ACCTGTA, for which the “uncleaved DNA left (log2)” value is -0.187.
With AGTACTC, the “uncleaved DNA left (log2)” value amounted to 0.11.
Next, CATGCCG: -0.126; GGTGCCC: 0.0874.
Next, TTTTAGA: 0.0302; TCAGCCC: -0.206; TTAATCT: 0.0278.
Next, ATCCGAG: 0.192; GGTAGGG: 0.0136.
Consider CCCGGGT, for which the “uncleaved DNA left (log2)” value is -0.00734.
Next, TTTGACC: 0.105; GGGTCAG: 0.131; CCAAATT: -0.169.
As for AGATGCC, the “uncleaved DNA left (log2)” value was 0.0668.
Next, CCAACGA: -0.112; AATCTGG: 0.218; TCCACAT: 0.232.
The same measure for CCTGCCT: 0.177; for GCGCACT: 0.147; for GGGAGGT: 0.0835.
Next, TTCGTTG: -0.107; CATAAAT: -0.0543.
For the sequence ATCCAAT, the “uncleaved DNA left (log2)” value is -0.00628.
The same measure for TCACCAG: -0.0488; for GGGTCGC: 0.148; for CACAAGA: 0.00936.
